Measurements reported in the RNAGym collection of RNA variant scans (doi:10.1073/pnas.2313332121).
This sample is rich in variants without activity.

B1: TPR 5TU (parent)
chain: GGAUCUUCUCGAUCUAACAAAAAAGACAAAUCUGCCACAAAGCUUGAGAGCAUCUUCGGAUGCAGAGGCGGCAGCCUUCGGUGGCGCGAUAGCGCCAACGUUCUCAACUAUGACACGCAAAACGCGUGCUCCGUUGAAUGGAGUUUAUCAUG

Variants of: B1
Assay: polymerase ribozyme fitness, log enrichment relative to wild type (log ratio); higher = more active; in vitro selection for triplet polymerase activity
How it was run: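 Only genotypes with ≥10 input reads and ≥1 read per output were kept after Illumina sequencing of input and output libraries. These libraries were PCR-built, transcribed mutants of each subunit of a heterodimeric triplet polymerase ribozyme, each put through one triplicate in vitro selection round with frozen incubation at −7 °C, gel excision of extended constructs, streptavidin-bead capture and RT-PCR. Fitness is a logarithmic ratio of genotype enrichment to wild-type enrichment, from inverse-variance-weighted replicate averages, with the logarithm in base 2.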

Q: Which “polymerase ribozyme fitness (log ratio)” value does the source give for GGAUCUUCUCGAUCUAACAAAAAAGACAAAUCUGCCACAAAGCUUGAGUGCGUCUUCGGAUGCAGAGGCGGCAGCCUACGGUGGCGCGAUAGCGCCGAGGUUCUCAACUAUGACACGCAAAACGCGUGCUCCGUUGAAUGGAGUUUAUCAUG here?
A: ≤ -4.2

Q: For GGAUCUUCUCGAUCUAACAAAAAAGACAAAUCUGCCACAAAGCUUGAGUGCAUCUUCGGUUGCAGAGGCGGCAGCGUUCGGUGGCGCGAUAGCGCCAACGUUCUCAACUAUGACUCGCAAAAAGCGUUCUCCGUUGAAUGGAGUUUAUCAUG, which “polymerase ribozyme fitness (log ratio)” value is on record?
A: ≤ -4.2

Q: For GGAUCUUCUCGAUCUAACAAAAAAGACAAAUCUGCCACAAAGCUUGAGUGCAUCUUCGGUUGCAGAGGCGGCAGCCUUCGGUAGCACGAUAGCGCCAACGUUCUCAACUAUGACCCGCAAAACGCGUGCUCCGUUGAAUGGACUUUAGCUUG, which “polymerase ribozyme fitness (log ratio)” value is on record?
A: ≤ -4.2

Q: Which “polymerase ribozyme fitness (log ratio)” value does the source give for GGAUCUUCUCGAUCUAACAAAAAAGACAAAUCUGCCACAAAGCUUGAGUGCAUCUUCGGAUGCAGAGGCGGCUGCCUUCGGUGGCGCGAUAGCGCCAACGUUCUCAACUAUGACACGCAAAACGCGUGCUGCGUUGAAUGGAGUUUACCAUG here?
A: ≤ -4.2

Q: Which “polymerase ribozyme fitness (log ratio)” value does the source give for GGAUCUUCUCGAUCUAACAAAAAAGACAAAUCUGCCACAAAGCUUGAGUGCAUCUUCGGAUGCAGAGGCGGCUGCCUUCGGUGGCGCAAUAGCGCCAACGUUCUAAACUAUGACACGCAAAACGCGUGCUCCGUUGAAUGGAGAUUAUCAUG here?
A: ≤ -4.2

Q: With GGAUCUUCUCGAUCUAACAAAAAAGACAAAUCUGCCACAAAGCUUGAGUGCAUCUUCGGAUGCAGAGGCGGCAGCCUUCGGUGGCGCGGUAGGGCCAACGUUCUCAACUAUGACACGCAAAACGCGUGCUCCGUUGUAUGGAGUUUAUCAUG as the variant, how does the “polymerase ribozyme fitness (log ratio)” value read?
A: ≤ -4.2

Q: For GGAUCUUCUCGAUCUAACAAAAAAGACAAAUCUGCCACAAAGCUUGAGUGAAUCUUCGGAUGCAGGGGCGGCAGCCUUCGGUGGCGCGAUAGCGUCAACGUUCUAAACUAUGACACGCAAAACGCGUGCUCCGUUGAAUGGAGUUUAUCAUG, which “polymerase ribozyme fitness (log ratio)” value is on record?
A: ≤ -4.2

Q: Which “polymerase ribozyme fitness (log ratio)” value does the source give for GGAUCUUCUCGAUCUAACAAAAAAGACAAAUCUGCCACAAAGCUUGAGUGUAUCUUCGGAUGCAGAGGCGGCAGCCUUCGGUGGCGCGAUAGCGCCAACGUUCUCAACUAUGACACGCAAAACGCGUGCUCCGUUGAAUGGAGUUUCUCAUG here?
A: -0.373

Q: With GGAUCUUCUCGAUCUAACAAAAAAGACAAAUCUGCCACAAAGCUUGAGUGCAUCUUAGGAUGCAGAGGCGGCAGCCUUCGGUGGCGCGAUAGCGCCAACGUUCUCAACUUUGACACGUAAAACGCGUGCUCCGUUGAGUGGAGUUUAUCAUG as the variant, how does the “polymerase ribozyme fitness (log ratio)” value read?
A: ≤ -4.2

Q: For GGAUCUUCUCGAUCUAACAAAAAAGACAAAUCUGCCACAAAGCUUGAGUGCAUCUUUGGAUGCAGAGGCGGCAGCCUUCGGUGGCGCGAUAGGGCCAACGUUGUCAACUAUGACACGCAAAACGCGUGCUCCGUUGAAUGGAGCUUAUCAUG, which “polymerase ribozyme fitness (log ratio)” value is on record?
A: ≤ -4.2

Q: With GGAUCUUCUCGAUCUAACAAAAAAGACAAAUCUGCCACAAAGCUUGAGUGCAUCUUCGGAUGCAGAGGUGGCAGCCUUCGGUGGCGCGAUAGCGCCAACGUUCUCAACUAUGACACGCAAAACGCGUGCUCCGUUGAAUGGAGUUUAUCAUG as the variant, how does the “polymerase ribozyme fitness (log ratio)” value read?
A: -1.86

Q: With GGAUCUUCUCGAUCUAACAAAAAAGACAAAUCUGCCACAAAGCUUGAGUGCAUCUUCGGAUGCAGAGGCGGCAGUCUUCGGUGGCGCGAUAGCGCCAACGUUCUCAACUAUGACUCGUAAAACGCGUGCUCCGUUGAAUGGAGUUUAUCAUG as the variant, how does the “polymerase ribozyme fitness (log ratio)” value read?
A: ≤ -4.2

Q: Which “polymerase ribozyme fitness (log ratio)” value does the source give for GGAUCUUCUCGAUCUAACAAAAAAGACAAAUCUGCCACAAAGCUUGAGUGCAUCUUCGGAUGCAGAGGCGGCAGCCUUCGGUGGAGCGAUAGCGCCAACGUUCUCAACUAUGACACGCAAAACGCGUGCUCCGUUGAAUGGAGUUUAUCAUG here?
A: -1.86

Q: For GGAUCUUCUCGAUCUAACAAAAAAGACAAAUCUGCCACAAAGCUUGAGUGCAUCUUCGGAUGCAGAGGCGGCAGCCUUCGGUGGAGCGAUAGCGCCAACGUUGUCAACUAUGACACGCAAAACGCGUGCUCCGUUGAAUGGAGUUUAUCAUG, which “polymerase ribozyme fitness (log ratio)” value is on record?
A: ≤ -4.2

Q: For GGAUCUUCUCGAUCUAACAAAAAAGACAAAUCUGCCACAAAGCUUGAGUGCAUCUUCGGAUGCAGAGGCGGCAGCCUUCGGUGGUGCGAUAGCGCCAACGUUCUCAACUAUGACACGCAAAACGCGUGCUCCGUUGAAUGGAGUUUAUCAUG, which “polymerase ribozyme fitness (log ratio)” value is on record?
A: -2.25

Q: For GGAUCUUCUCGAUCUAACAAAAAAGACAAAUCUGCCACAAAGCUUGAGUACAUCUUCGGCUGCAGAGGCGGCAGGCUUCGGUGGCGCGAUAGCGCCAACGUUCUCAACUAUGACACGCAAAACGCGUGCUCCGUUGAAUGGAGUUUAUCAUG, which “polymerase ribozyme fitness (log ratio)” value is on record?
A: ≤ -4.2

Q: For GGAUCUUCUCGAUCUAACAAAAAAGACAAAUCUGCCACAAAGCUUGAGUCCAUCUUCGGAUGCAGAGGCGGCAGCCUUCGGUGGCGCGAGAGCGCCAACGUUCUCGACUAUGACACGCAAAACGCGUUCUCCGUUGAAUGGAGUUUAUCAUG, which “polymerase ribozyme fitness (log ratio)” value is on record?
A: ≤ -4.2

Q: With GGAUCUUCUCGAUCUAACAAAAAAGACAAAUCUGCCACAAAGCUUGAGUUCGUCUUCGGAUGCAGAGGCGGCAGCCUUCGGUGGCGCGAUAGGGCCAAGGUUCUCAACUAUGACACGCAAAACGCGUGCUCCGUUGAAUGGAGUUUAUCAUG as the variant, how does the “polymerase ribozyme fitness (log ratio)” value read?
A: ≤ -4.2

Q: Which “polymerase ribozyme fitness (log ratio)” value does the source give for GGAUCUUCUCGAUCUAACAAAAAAGACAAAUCUGCCACAAAGCUUGAGUGCAUCUUCCGAUGCAGAGGCGGCAGGCUUCGGUGGCGCGAUAGCGCCAACGUUCUCAACUAUGACACGGAAAACACGUGCUCCGUUGAAUGGAGUUUAUCAUG here?
A: ≤ -4.2
